From the supplement of paper PMC9446081
Out of some 39,000 compounds screened, about 220 (0.56%) showed activity. This is one part of the list.

Each compound was assayed on Escherichia coli K-12 BW25113 (assay: relative growth (OD600 normalised to plate interquartile mean) (fraction); higher = less growth inhibition, active = 0.2 or less). Details: 50 µM; LB; incubation time: overnight (16-24 h).
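Note: static incubation at 37 °C against the wild-type strain, values averaged over two biological replicates.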

Compound	relative growth
C[C@H]1CN([C@@H](C)CO)S(=O)(=O)c2ccc(C#Cc3ccncc3)cc2O[C@@H]1CN(C)C(=O)C1CCCCC1	inactive: 1.02
CC(=O)OCO/N=[N+](\[O-])N1CCCC1	inactive: 0.996
C[C@@H]1CCCCO[C@@H](CN(C)S(=O)(=O)c2ccc(Cl)cc2)[C@H](C)CN([C@@H](C)CO)C(=O)c2cc(NC(=O)c3ccccc3)ccc2O1	inactive: 1.02
CC(C)NC(=O)N1Cc2cc(C(=O)NCC(F)(F)F)nc(-c3cccc(-c4cc5ccccc5o4)c3)c2[C@@H]1CCO	inactive: 1.02
COc1ccc([Si](C)(C)[C@H]2[C@H](CC(=O)N3CCC[C@H]3CO)O[C@@]3(C(=O)N(Cc4ccc(N5C(=O)c6cccc7cccc5c67)cc4)c4ccccc43)[C@@H]2C)cc1	inactive: 1.03
N#CC(c1ccc(Cl)cc1)c1c(Cl)cc(-n2ncc(=O)[nH]c2=O)cc1Cl (centres undefined)	inactive: 0.808
Cn1cnc(S(=O)(=O)N2C[C@H](O)COC[C@@H]3O[C@H](CC(=O)NC4CCC4)CC[C@H]32)c1	inactive: 0.975
COc1ccc2c3c(n(c2c1)C)[C@H](CO)N(C[C@]13CCN(CC1)C(=O)Nc1ccc(cc1F)F)C(=O)Nc1ccc(cc1)F	inactive: 1.01
CO[C@@H]1CN(C)C(=O)c2ccc(NC(=O)Nc3cccc(F)c3)cc2OC[C@H](C)N(C(=O)Nc2c(C)noc2C)C[C@@H]1C	inactive: 1
CCCNC(=O)N1C[C@]2(CCN(CC2)S(=O)(=O)c2cccc(c2)OC)c2c(n(c3cc(ccc23)OC)C)[C@@H]1CO	inactive: 0.994
C[C@H]1CN([C@@H](C)CO)S(=O)(=O)c2ccc(C#Cc3ccccc3F)cc2O[C@H]1CN(C)CC1CC1	inactive: 0.977
Cc1ccc2c(c1)C(=O)CCS2	inactive: 0.983
C[C@H]1CCCCO[C@@H](CN(C)C(=O)Nc2cccc3ccccc23)[C@@H](C)CN([C@@H](C)CO)C(=O)c2cc(NS(C)(=O)=O)ccc2O1	inactive: 0.979
C[C@H]1CCCCO[C@H](CN(C)S(C)(=O)=O)[C@@H](C)CN([C@@H](C)CO)C(=O)c2cc(NS(=O)(=O)c3cn(C)cn3)ccc2O1	inactive: 1
C[C@@H]1CN([C@@H](C)CO)C(=O)CCCn2nncc2CO[C@H]1CN(C)S(=O)(=O)c1ccc(-n2cccn2)cc1	inactive: 0.985
O=C(C[C@@H]1C[C@@H]2c3cc(NS(=O)(=O)c4ccc(F)cc4)ccc3O[C@@H]2[C@@H](CO)O1)NCCN1CCCCC1	inactive: 1.01
C[C@H](CO)N1C[C@H](C)[C@@H](CN(C)C(=O)Cc2ccccc2)OCCCC[C@H](C)Oc2ccc(NC(=O)Nc3ccc(F)cc3)cc2C1=O	inactive: 1
COc1ccc(NC(=O)Nc2ccc3c(c2)C(=O)N([C@@H](C)CO)C[C@@H](C)[C@@H](CN(C)C(=O)Nc2ccc(C(F)(F)F)cc2)OCCCC[C@@H](C)O3)cc1	inactive: 0.956
C[C@@H]1CN([C@H](C)CO)C(=O)Cc2cc(NC(=O)Nc3ccc(C(F)(F)F)cc3)ccc2O[C@H]1CN(C)C(=O)NC1CCCCC1	inactive: 0.997
COc1ccc(NC(=O)Nc2ccc3c(c2)C(=O)N([C@@H](C)CO)C[C@H](C)[C@H](CN(C)S(=O)(=O)c2cn(C)cn2)O3)cc1	inactive: 0.986

Compound	relative growth
C[C@@H]1CN([C@@H](C)CO)C(=O)c2cc(NC(=O)CCCN(C)C)ccc2O[C@@H]1CN(C)S(=O)(=O)c1ccccc1	inactive: 1.03
CC(C)NC(=O)Nc1ccc2c(c1)C(=O)N([C@H](C)CO)C[C@H](C)[C@H](CN(C)Cc1ccc(C(F)(F)F)cc1)OCCCC[C@H](C)O2	inactive: 1.03
CC(C)NC(=O)Nc1ccc2c(c1)C(=O)N([C@H](C)CO)C[C@@H](C)[C@H](CN(C)S(=O)(=O)c1cccs1)O2	inactive: 1.02
CO[C@H]1CN(C)C(=O)c2cc(NC(=O)Nc3ccccc3F)ccc2OC[C@H](C)N(Cc2ccccc2C(=O)O)C[C@H]1C	inactive: 0.99
CNC(=O)C[C@H]1CC[C@@H]2[C@H](COC[C@@H](O)CN2C(=O)c2ccc3c(c2)OCO3)O1	inactive: 0.996
COc1ccc(NC(=O)N(C)C[C@@H]2OCCCC[C@H](C)Oc3ccc(NS(=O)(=O)c4ccc(OC)cc4)cc3C(=O)N([C@H](C)CO)C[C@@H]2C)cc1	inactive: 0.974
COc1ccc(NC(=O)Nc2ccc3c(c2)C(=O)N([C@@H](C)CO)C[C@H](C)[C@H](CN(C)C(=O)Nc2ccc(OC)cc2)OCCCC[C@H](C)O3)cc1	inactive: 0.996
C[C@@H]1CCCCO[C@@H](CN(C)Cc2ccc(C(F)(F)F)cc2)[C@H](C)CN([C@H](C)CO)C(=O)c2cc(NC(=O)Nc3ccc(C(F)(F)F)cc3)ccc2O1	inactive: 1.02
Cc1sc(Nc2ccccc2)nc1-c1ccc(Cl)cc1	inactive: 1.04
C[C@@H]1CCCCO[C@@H](CN(C)C(=O)NC2CCCCC2)[C@H](C)CN([C@H](C)CO)C(=O)c2cc(NC(=O)Cc3ccccc3)ccc2O1	inactive: 0.984
C[C@@H]1CN([C@@H](C)CO)S(=O)(=O)c2ccc(C#Cc3ccccn3)cc2O[C@@H]1CN(C)Cc1ccccc1	inactive: 1.02
CNC(=O)c1ccc(N)cc1	inactive: 1.01
C[C@@H]1CN([C@H](C)CO)C(=O)c2cc(NC(=O)Nc3cccc4ccccc34)ccc2O[C@@H]1CN(C)Cc1ccc(Oc2ccccc2)cc1	inactive: 1.02
C[C@@H]1CN([C@H](C)CO)C(=O)c2cc(NC(=O)Nc3cccc4ccccc34)ccc2O[C@H]1CN(C)S(=O)(=O)c1ccc(Cl)cc1	inactive: 1.03
COc1cc2c(cc1OC)CN(C(=O)[C@H]1[C@@H]3C(=O)O[C@@H](c4ccccc4)[C@@H](c4ccccc4)N3[C@@H](c3ccccc3OCCO)[C@]13C(=O)Nc1ccc(C#CC4=CCCCC4)cc13)CC2	inactive: 1.09
COc1ccc(NC(=O)N(C)C[C@@H]2OCCCC[C@@H](C)Oc3ccc(NC(=O)Nc4ccc(F)cc4)cc3C(=O)N([C@@H](C)CO)C[C@H]2C)cc1	inactive: 1.01
Cc1noc(C)c1NC(=O)N(C)C[C@H]1Oc2ncc(C#CCC(C)C)cc2C(=O)N([C@H](C)CO)C[C@@H]1C	inactive: 0.981
C[C@H]1CN([C@@H](C)CO)C(=O)Cc2cc(NC(=O)CCN3CCOCC3)ccc2O[C@H]1CN(C)C(=O)Nc1ccc2c(c1)OCO2	inactive: 1
COc1ccc(S(=O)(=O)N(C)C[C@H]2OCCCC[C@H](C)Oc3ccc(NS(=O)(=O)c4ccc(Cl)cc4)cc3C(=O)N([C@@H](C)CO)C[C@H]2C)cc1	inactive: 1.04
O=C(NCc1nc2ccccc2[nH]1)C1=C[C@H](c2ccc(C(F)(F)F)cc2)C[C@H](OCc2ccc(CO)cc2)O1	inactive: 1.02

Compound	relative growth
CCc1nc2ccccc2c(N)c1C	inactive: 0.99
C[C@@H]1CN([C@@H](C)CO)C(=O)c2cc(NC(=O)Nc3cccc4ccccc34)ccc2O[C@H]1CN(C)Cc1ccc(Cl)c(Cl)c1	inactive: 1.03
C[C@H](CO)N1C[C@H](C)[C@H](CN(C)C(=O)Nc2cccc3ccccc23)OCCCC[C@H](C)Oc2ccc(NC(=O)Nc3ccc4c(c3)OCO4)cc2C1=O	inactive: 1.01
C[C@H]1CCCCO[C@@H](CN(C)Cc2ccc(C(=O)O)cc2)[C@@H](C)CN([C@@H](C)CO)C(=O)c2cc(NC(=O)Cc3ccccc3)ccc2O1	inactive: 0.986
O=C(c1ccncc1)N1C[C@H]2[C@@H](c3ccccc31)[C@H](CO)N2C(=O)CN1CCOCC1	inactive: 1.02
O=C(C[C@@H]1CC[C@H]2[C@@H](COC[C@@H](O)CN2S(=O)(=O)c2ccccc2)O1)N[C@@H]1CCN(Cc2ccccc2)C1	inactive: 0.999
CNC(=O)Cc1cnc(N)s1	inactive: 0.981
NNC(=O)CN1CCCc2ccccc21	inactive: 0.941
COc1ccc(S(=O)(=O)N(C)C)cc1	inactive: 1.02
CCC(=O)c1ccc(O)cc1	inactive: 1.02
C[C@@H]1CN([C@H](C)CO)C(=O)Cc2cc(NS(=O)(=O)c3ccc(Cl)cc3)ccc2O[C@@H]1CN(C)C(=O)Nc1cccc2ccccc12	inactive: 1.01
CCS(=O)(=O)Nc1ccc2c(c1)C(=O)N(C)C[C@@H](OC)[C@@H](C)CN(Cc1ccccn1)[C@H](C)CO2	inactive: 1.04
C[C@@H]1CCCCO[C@@H](CN(C)C(=O)NC2CCCCC2)[C@@H](C)CN([C@H](C)CO)C(=O)c2cc(NC(=O)Nc3ccc4c(c3)OCO4)ccc2O1	inactive: 0.98
COc1ccc(CN(C)C[C@H]2OCCCC[C@H](C)Oc3ccc(NC(=O)Nc4ccc(C(F)(F)F)cc4)cc3C(=O)N([C@H](C)CO)C[C@H]2C)cc1	inactive: 0.997
C=CCC[C@H](Cc1ccc(F)cc1)C(=O)O[C@@H](CNC(=O)[C@H](CC=C)CC(=O)N(CCO)Cc1ccccc1)c1ccccc1	inactive: 1.08
Cc1noc(C)c1NC(=O)N(C)C[C@@H]1Oc2c(NC(=O)c3ccc(-c4nccs4)cc3)cccc2C(=O)N([C@@H](C)CO)C[C@H]1C	inactive: 0.982
COc1ccc(NC(=O)Nc2ccc3c(c2)C(=O)N([C@H](C)CO)C[C@H](C)[C@@H](CN(C)S(=O)(=O)c2c(C)noc2C)O3)cc1	inactive: 1.06
C[C@@H]1CN([C@H](C)CO)C(=O)c2cccc(NC(=O)Nc3ccc(C(F)(F)F)cc3)c2O[C@H]1CN(C)C(=O)Nc1ccc2c(c1)OCO2	inactive: 0.801
C[C@H](CO)N1C[C@H](C)[C@@H](CN(C)S(=O)(=O)c2cn(C)cn2)Oc2c(NC(=O)c3ccncc3)cccc2C1=O	inactive: 1.01
